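These data come from cells grown in 96-well plates and exposed to compound for 48 hours at five concentrations. Abbreviation: GI50, concentration required for 50% inhibition of growth.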 The source made the active and inactive calls. Cut-off read from the data, not from the text of the source: active = GI50 up to about 1.1 µM and inactive = higher.
system: NCI-H322M; test: DTP human tumour cell line panel, 48 h

**Q.** How did the GI50 turn out when `COc1ccc2c(c1O)-c1c(OC)c(OC)cc3c1[C@H](C2)[N+](C)(C)CC3` was run?
**A.** Its GI50 is inactive: > 100 µM.

**Q.** Which GI50 does the source give for `CC(C)(C)OC(=O)N[C@H]1CC(=O)c2ccccc2N(CC(=O)O)C1=O` here?
**A.** Its GI50 is inactive: > 100 µM.

**Q.** Which GI50 does the source give for `COc1cc2c(c(OC)c1OC)C(=O)[C@H](Br)[C@H]2NC(=O)NCCCl` here?
**A.** The GI50 was inactive: 91.6 µM.

**Q.** With `NC(=O)N/N=C(/CC1C(=O)Oc2ccccc21)c1ccccc1O` (stereo unspecified) as the molecule, how does the GI50 read?
**A.** The GI50 was inactive: 35.5 µM.

**Q.** For `COc1cc2c(c(OC)c1OC)-c1ccc(SC)c(=O)cc1[C@@H](NCc1ccc([N+](=O)[O-])cc1)CC2`, which GI50 is on record?
**A.** The GI50 was active: 0.00396 µM.

**Q.** With `CC(C)=C[C@H]1CCC2(OCCO2)[C@]1(C)COCc1ccccc1` as the molecule, how does the GI50 read?
**A.** Its GI50 is inactive: 87.9 µM.

**Q.** Which GI50 does the source give for `OC(c1cc(C(F)(F)F)nc2c(Cl)cc(Cl)cc12)C1CCCCN1` (stereo unspecified) here?
**A.** Its GI50 is inactive: > 37.2 µM.

**Q.** How did the GI50 turn out when `COc1cc(Nc2nc3cc(C(F)(F)F)ccc3n3cccc23)cc(OC)c1OC` was run?
**A.** The GI50 was inactive: > 100 µM.

**Q.** For `O=[N+]([O-])c1cccc2nc3ccccc3c(NCCC[N+]3([O-])CCCCC3)c12`, which GI50 is on record?
**A.** The GI50 was active: 0.721 µM.

**Q.** With `COC(=N)C12C(N)=NC(OC)(OC)C1(C#N)C21C(=O)N(c2ccccc2)N=C1C` (stereo unspecified) as the molecule, how does the GI50 read?
**A.** The GI50 was inactive: > 100 µM.

**Q.** For `O=C1/C(=C/c2ccc3c(c2)CCC3)Cc2cc3c(cc21)CCC3`, which GI50 is on record?
**A.** Its GI50 is inactive: > 100 µM.

**Q.** Which GI50 does the source give for `COc1cc2c(cc1OC)C13CCN4CC5CCOC6CC(=O)N2C1C6C5CC43` (stereo unspecified) here?
**A.** The GI50 was inactive: > 100 µM.

**Q.** Which GI50 does the source give for `COc1ccc(-c2c(C#N)c(O)n(C3OC(CO)C(O)C(O)C3O)c(=S)c2C#N)cc1` (stereo unspecified) here?
**A.** Its GI50 is inactive: > 100 µM.

**Q.** `CN(C)CCNC(=O)c1cccc2ccc(-c3ccc(Br)cc3)nc12` was tested. Which GI50 did it give?
**A.** The GI50 was inactive: 3.21 µM.

**Q.** For `CNC(=S)NN=C1NCCCCN1`, which GI50 is on record?
**A.** The GI50 was inactive: > 100 µM.

**Q.** How did the GI50 turn out when `Cn1ncnc1CCc1ccccc1` was run?
**A.** Its GI50 is inactive: > 100 µM.

**Q.** `CC1=CC=NN2C(=O)[C@H](C)C2C1` (stereo partly specified) was tested. Which GI50 did it give?
**A.** The GI50 was inactive: > 100 µM.

**Q.** How did the GI50 turn out when `CCOC(=O)N/N=C(\CC)OCC` was run?
**A.** The GI50 was inactive: > 100 µM.

**Q.** `Brc1ccc(C[P+]2(c3ccccc3)CCCCC2)cc1.[O-][Cl+3]([O-])([O-])[O-]` was tested. Which GI50 did it give?
**A.** Its GI50 is inactive: > 100 µM.

**Q.** Which GI50 does the source give for `O=C(NNC(=O)c1csc(NC(=S)NC2CCCCC2)n1)c1ccccc1` here?
**A.** Its GI50 is inactive: 5.64 µM.

**Q.** Which GI50 does the source give for `CC(=O)Oc1cc2c(cc1OCC(F)(F)F)[C@H]1CC[C@]3(C)[C@@H](OC(C)=O)CC[C@H]3[C@@H]1CC2=O` here?
**A.** The GI50 was inactive: 16.7 µM.

**Q.** How did the GI50 turn out when `CC12CCC(C(=O)OC1=O)C(C)(C)O2` (stereo unspecified) was run?
**A.** The GI50 was inactive: > 100 µM.

**Q.** `COC(=O)C1OC(Oc2cc(O)c3c(=O)cc(-c4ccc(O)cc4)oc3c2)C(O)C(O)C1O` (stereo unspecified) was tested. Which GI50 did it give?
**A.** The GI50 was inactive: > 100 µM.

**Q.** `O=c1[nH]c(=O)n([C@H]2C[C@@H](CO)[C@@H](O)C2)cc1I` was tested. Which GI50 did it give?
**A.** Its GI50 is inactive: > 100 µM.

**Q.** How did the GI50 turn out when `C/N=c1/ss/c(=N\C(SC)=[N+](C)C)n1C.[O-][Cl+3]([O-])([O-])[O-]` was run?
**A.** Its GI50 is inactive: > 100 µM.

**Q.** With `Cc1cc(C)nc(NS(=O)(=O)c2ccc(Nc3c4ccccc4nc4c(C(=O)N5CCN(CCOS(C)(=O)=O)CC5)cccc34)cc2)n1` as the molecule, how does the GI50 read?
**A.** The GI50 was inactive: > 100 µM.

**Q.** `Nc1ccc(-c2nc3cc(F)ccc3s2)cc1Cl` was tested. Which GI50 did it give?
**A.** The GI50 was inactive: 1.28 µM.

**Q.** For `Nc1nc(N)c2ncn(Cc3ccccc3CO)c2n1`, which GI50 is on record?
**A.** Its GI50 is inactive: > 100 µM.

**Q.** With `CC(=O)Nc1ccc2c3c(cc(O)c2c1)N(C(=O)CCCCC(=O)Nc1ccc2c4c(cc(O)c2c1)N(C(=O)OC(C)(C)C)CC4CCl)CC3CCl` (stereo unspecified) as the molecule, how does the GI50 read?
**A.** Its GI50 is inactive: 4.98 µM.

**Q.** `COC(=O)C1C(O)CC(c2ccccn2)N(Cc2ccccc2)C1c1ccccn1` (stereo unspecified) was tested. Which GI50 did it give?
**A.** The GI50 was inactive: 82.4 µM.

**Q.** `CSc1nncc(-c2cc3c(c(SC)n2)CCC3)n1` was tested. Which GI50 did it give?
**A.** The GI50 was inactive: > 100 µM.

**Q.** With `Cc1cc2c(C(C)C)c(O)c(O)c(/C=N/c3cc(C(F)(F)F)ccc3Cl)c2c(O)c1-c1c(C)cc2c(C(C)C)c(O)c(O)c(/C=N/c3cc(C(F)(F)F)ccc3Cl)c2c1O` as the molecule, how does the GI50 read?
**A.** The GI50 was inactive: > 100 µM.

**Q.** How did the GI50 turn out when `CCOC(=O)N1CC2(C)C=CC1C(C(=O)OC)C2` (stereo unspecified) was run?
**A.** The GI50 was inactive: > 100 µM.

**Q.** `CC(C)=C1C(=O)c2c(Cl)sc(Cl)c2C1=O` was tested. Which GI50 did it give?
**A.** Its GI50 is inactive: 36.2 µM.

**Q.** `CCOC(=O)CCC(C(=O)OCC)n1nc2ccc(Nc3c(C)[n+]([O-])c4ccc(Cl)cc4[n+]3[O-])cc2n1` (stereo unspecified) was tested. Which GI50 did it give?
**A.** The GI50 was inactive: 37.1 µM.

**Q.** How did the GI50 turn out when `Nc1ccccc1CCN1CCN(CCCc2ccccc2)CC1` was run?
**A.** The GI50 was inactive: 72.1 µM.

**Q.** With `Cc1cc(S(=O)(=O)Nc2n[nH]c(Nc3ccccc3)n2)c(S)cc1Cl` as the molecule, how does the GI50 read?
**A.** The GI50 was inactive: > 10 µM.

**Q.** `Cc1nc(=O)[nH]c2c1C(=O)N(C(C)C)C(NC(C)C)S2` (stereo unspecified) was tested. Which GI50 did it give?
**A.** The GI50 was inactive: > 100 µM.

**Q.** How did the GI50 turn out when `CC12CC/C(=N/NC(N)=O)C3C1CCCC32` was run?
**A.** Its GI50 is inactive: > 100 µM.

**Q.** With `Cc1ccc(CCNC(=S)SCC(NC(=O)CCC(N)C(=O)O)C(=O)NCC(=O)O)cc1` (stereo unspecified) as the molecule, how does the GI50 read?
**A.** The GI50 was inactive: 3.63 µM.

**Q.** How did the GI50 turn out when `Nc1ccccc1C(=O)CCC1C(=O)NC(=S)NC1=O` was run?
**A.** The GI50 was inactive: > 100 µM.

**Q.** `NC(Cc1ccc(OCc2ccccc2)cn1)C(=O)O` (stereo unspecified) was tested. Which GI50 did it give?
**A.** Its GI50 is inactive: > 100 µM.

**Q.** For `COc1ccccc1NC(=O)/C(Cc1nc2ccc([N+](=O)[O-])cc2nc1O)=N\NC(=O)C[N+](C)(C)C`, which GI50 is on record?
**A.** The GI50 was inactive: > 100 µM.

**Q.** For `Oc1nc(S)nc2c1CCCN2`, which GI50 is on record?
**A.** Its GI50 is inactive: > 100 µM.

**Q.** `CN1CCc2c1nc(-c1ccc(Cl)cc1)c1c2N(C)CC1` was tested. Which GI50 did it give?
**A.** Its GI50 is inactive: 15.7 µM.

**Q.** With `CCCOC(=O)C1C2CCC(O2)C1C(=O)O` (stereo unspecified) as the molecule, how does the GI50 read?
**A.** Its GI50 is inactive: 53.6 µM.

**Q.** `CCOC(=O)c1ccc(-c2cccs2)[nH]1` was tested. Which GI50 did it give?
**A.** Its GI50 is inactive: > 100 µM.

**Q.** For `O=[N+]([O-])c1ccc(-n2nnc(C3=NCCCN3)c2-c2ccc(Cl)cc2)cc1`, which GI50 is on record?
**A.** The GI50 was inactive: > 100 µM.

**Q.** `N#Cc1ccccc1NC(=O)C(=O)C(C(=O)c1ccccc1-c1ccccc1)C1OC(=O)c2ccccc21` (stereo unspecified) was tested. Which GI50 did it give?
**A.** The GI50 was inactive: 15.5 µM.

**Q.** `Cc1cc2c(=O)cc(-c3ccc(Cl)c(Cl)c3)oc2c(C(=O)O)c1C` was tested. Which GI50 did it give?
**A.** Its GI50 is inactive: > 100 µM.

**Q.** `O=C1Oc2ccccc2N/C1=C/C(=O)c1ccc(Cl)cc1` was tested. Which GI50 did it give?
**A.** Its GI50 is inactive: > 100 µM.

**Q.** How did the GI50 turn out when `CCOC(=O)NC(=O)c1cn(CCCOC(=O)CCCCCCCCC(=O)OCCCn2cc(C(=O)NC(=O)OCC)c(=O)[nH]c2=O)c(=O)[nH]c1=O` was run?
**A.** The GI50 was inactive: 30.3 µM.

**Q.** Which GI50 does the source give for `OCC(O)C(OC1OC(CO)C(O)C(O)C1O)c1nn(-c2ccc(Cl)cc2)c2nc3cc(Cl)ccc3nc12` (stereo unspecified) here?
**A.** Its GI50 is inactive: > 100 µM.

**Q.** With `C=C(COC(C)=O)CC(/C=C(\C)CCC=C(C)C)OC(C)=O` (stereo unspecified) as the molecule, how does the GI50 read?
**A.** Its GI50 is inactive: > 100 µM.

**Q.** With `CC(C)(Cl)C(Cl)CC/C(CBr)=C(\Cl)CBr` (stereo unspecified) as the molecule, how does the GI50 read?
**A.** The GI50 was inactive: 13.4 µM.

**Q.** With `C1=C2/CC[C@H](Sc3ccccc3)[C@H]2C2(CCCCC/1)OCCO2` as the molecule, how does the GI50 read?
**A.** The GI50 was inactive: 54 µM.

**Q.** Which GI50 does the source give for `N=C(N)NS(=O)(=O)c1ccc(NC(=O)c2ccc3nc4ccccc4c(Nc4ccc(S(N)(=O)=O)cc4)c3c2)cc1` here?
**A.** The GI50 was inactive: > 100 µM.

**Q.** How did the GI50 turn out when `N#Cc1nc(C2CCC(=O)O2)oc1N` (stereo unspecified) was run?
**A.** Its GI50 is inactive: > 100 µM.

**Q.** `O=[N+]([O-])c1ccc(-c2ccc(/C=N/n3c(S)nnc3-c3ccc(Cl)cc3)o2)cc1` was tested. Which GI50 did it give?
**A.** Its GI50 is inactive: 42.4 µM.

**Q.** How did the GI50 turn out when `CCOP(=O)(OCC)/C(F)=C/c1ccc(F)cc1` was run?
**A.** Its GI50 is inactive: > 100 µM.

**Q.** Which GI50 does the source give for `CC(C)(Cc1ccccc1)Cc1cc(O)ccc1O` here?
**A.** The GI50 was inactive: 32.4 µM.

**Q.** With `Cc1ccc2nc(/C=N/c3ccccc3Cl)cc(C)c2c1` as the molecule, how does the GI50 read?
**A.** The GI50 was inactive: > 100 µM.

**Q.** With `CN(C)c1ccc(/C=C2\C[C@H]3[C@@H]4CCc5cc(O)ccc5[C@H]4CC[C@]3(C)C2=O)cc1` as the molecule, how does the GI50 read?
**A.** Its GI50 is inactive: 50.6 µM.

**Q.** With `N=C(N)NC(=N)Nc1ccccc1.Sc1nc2ccccc2s1` as the molecule, how does the GI50 read?
**A.** The GI50 was inactive: > 100 µM.

**Q.** For `CNc1cccc(-c2cc(O)c3cc4c(cc3n2)OCO4)c1`, which GI50 is on record?
**A.** The GI50 was active: 0.526 µM.

**Q.** `C[C@H](CCC1SC1(C)C)C1CCC2(C)C3=C(CC[C@]12C)[C@@]1(C)CC[C@H](O)C(C)(C)C1CC3` (stereo partly specified) was tested. Which GI50 did it give?
**A.** Its GI50 is inactive: > 100 µM.

Reference: ChEMBL document CHEMBL1201862, “PubChem BioAssay data set” (2004)
